This note sets out measurements from PubChem BioAssay AID1159614 (National Center for Advancing Translational Sciences (NCATS), 2016).

The structures appear in SMILES notation. The whole screen tested about 45,000 compounds, of which about 65 (0.1%) were called active. The call rests on the fitted dose curve; in most records, active means well fitted activation curve with a large enough effect; inconclusive means small, poorly fitted or top-dose-only effect; inactive means no such curve, though single readings can be large or run the other way. The list shows a part of the results.

This assay addresses Galactocerebrosidase (Homo sapiens) (UniProt P54803). The assay is described as follows: A Novel Cell-Based Assay to Identify Small Molecules for B -Galactocerebrosidase. Further: 0% is about no effect; nearly all actives have a fitted effect of over 65% in size. The following applies: 145M-Twi-hGALC-G270D cells (Twitcher mouse brain line with human GALC G270D), HMU-beta-Gal fluorescence, 48 h; series mostly up to 57.5 µM; activation: at the top concentration. A digest of the protocol: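 Fluorogenic HMU-b-Gal hydrolysis (0.1 mM final, pH 5.2 citrate-phosphate with 1 mg/mL sodium taurocholate; carbonate stop buffer) measures mutant GALC activity after compound treatment of live 145M-Twi Twitcher brain cells stably carrying human GALC-G270D, with wild-type GALC line alongside; activation sought.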
Sequence of UniProt P54803 (P54803 whole entry, looked up): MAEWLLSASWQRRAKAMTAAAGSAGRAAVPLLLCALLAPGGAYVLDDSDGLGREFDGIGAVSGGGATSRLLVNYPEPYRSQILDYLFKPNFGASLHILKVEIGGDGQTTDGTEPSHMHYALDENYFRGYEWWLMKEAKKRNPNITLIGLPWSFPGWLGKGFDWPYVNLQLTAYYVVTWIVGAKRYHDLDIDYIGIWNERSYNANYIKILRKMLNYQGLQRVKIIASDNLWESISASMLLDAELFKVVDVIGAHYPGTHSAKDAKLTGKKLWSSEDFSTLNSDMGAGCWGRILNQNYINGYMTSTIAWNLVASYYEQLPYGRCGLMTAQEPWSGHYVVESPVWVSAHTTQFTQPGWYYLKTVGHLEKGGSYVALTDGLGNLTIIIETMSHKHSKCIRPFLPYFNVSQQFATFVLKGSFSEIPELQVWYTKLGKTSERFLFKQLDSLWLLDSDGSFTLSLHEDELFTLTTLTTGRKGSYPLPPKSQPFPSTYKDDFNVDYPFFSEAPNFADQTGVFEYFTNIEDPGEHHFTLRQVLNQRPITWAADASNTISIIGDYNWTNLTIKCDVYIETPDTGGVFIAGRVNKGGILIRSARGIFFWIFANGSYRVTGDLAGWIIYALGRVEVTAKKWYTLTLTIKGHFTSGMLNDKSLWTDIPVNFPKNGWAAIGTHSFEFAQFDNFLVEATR
As to `COC(=O)CCn1cnc2onc(-c3cc(F)cc(F)c3)c2c1=O`, the “activation” value is inactive: -12.7%.

Regarding `Cc1ccc(C)c(CS(=O)(=O)c2cn(CC(=O)N(C(C)C)C(C)C)c3ccccc23)c1`, the “activation” value is inactive: -11.8%.

In the case of `CC(C)Sc1ncc(Cl)c(C(=O)Nc2ccc(S(=O)(=O)N(C)c3ccccc3)cc2)n1`, the “activation” value was inactive: -17.6%.

For `Fc1ccc2ncc3c(-c4ccccc4)n[nH]c3c2c1`, the “activation” value is inactive: -10.9%.

For `COc1ccc(C2CNC(=O)C2)cc1OC1CCCC1` (stereo not drawn), the “activation” value was inactive: -26.9%.

On to `COc1ccc(/C=C/C(=O)Nc2sc3c(c2C(N)=O)CCC(C)C3)cc1OC` (stereo not drawn), for which the “activation” value is inactive: 3.36%.

With `Cc1ccc2c(c1)N(C(=O)N1CCC(C(=O)NC3CCCCCC3)CC1)CC(C)O2` (stereo not drawn), the “activation” value was inactive: -18.9%.

As to `COc1cc(NC(=O)Cc2c(C(=O)O)c(C)cn2C)cc(OC)c1`, the “activation” value was inactive: -10.5%.

Consider `CNC(=O)c1c[nH]c2ccc(S(=O)(=O)Nc3cccc(Cl)c3C)cc2c1=O`, for which the “activation” value is inactive: -0.578%.

As for `CCc1cccc(NC(=O)CSc2ncccc2C(=O)Oc2ccccc2Cl)c1`, the “activation” value was inactive: -25%.

Regarding `COc1ccc(CNC(=O)CCC(=O)N2CC3CCCN3c3ccccc32)c(OC)c1` (stereo not drawn), the “activation” value was inactive: -8.71%.

Take `Cc1cc(C)cc(OCc2ccc(C(=O)Nc3ccccc3F)o2)c1`: the “activation” value was inactive: -21.7%.

In the case of `CCOC(=O)c1c(NC(=O)c2cc(C)on2)sc(C)c1C`, the “activation” value was inactive: -22.2%.

For the molecule `CCOc1ccc(NC(=O)CCS(=O)(=O)c2cccc3nonc23)cc1`, the “activation” value is inactive: -21.5%.

In the case of `Cc1ccc(-n2ncc3c(N4CCN(C)CC4)ncnc32)cc1Cl`, the “activation” value is inactive: -14.6%.

With `Cc1cc(C)c2c(=O)cc(C(=O)Nc3sc4c(c3C(=O)NCc3cccnc3)CCCC4)oc2c1`, the “activation” value is inactive: -6.94%.

Take `CC(=O)c1cccc(NC(=O)c2ccc(-n3c(C)nnc3C)cc2)c1`: the “activation” value is inactive: -12.6%.

For `COC(=O)c1cc(S(=O)(=O)NCC2CCN(Cc3ccc(C)cc3)CC2)c[nH]1`, the “activation” value was inactive: -3.42%.

Regarding `CCOc1ccc(-n2c(SCC(=O)Nc3ccc(F)cc3)nc3c([nH]c4ccccc43)c2=O)cc1`, the “activation” value is inactive: -11.3%.

As for `CCC(Sc1nc2nccnc2c(=O)n1Cc1ccc(OC)cc1)C(=O)NC1CCCCC1` (stereo not drawn), the “activation” value is inactive: -0.179%.

For `CC(C)C12CN3CC(C(C)C)(CN(C1)C3c1ccc(OCc3ccccc3)cc1)C2=O` (stereo not drawn), the “activation” value was inactive: -28.3%.

With `CCOc1ccccc1CNC(=O)c1ccc2c(c1)sc1nc(-c3cccc(OC)c3)cn12`, the “activation” value was inactive: -35.6%.

For `CC(C)n1c(SCC(=O)Nc2ccc(F)cc2)nc2c(oc3ccccc32)c1=O`, the “activation” value was inactive: -9.08%.

Turning to `Cc1cc(NC(=O)COc2ccccc2)cc(-c2nc3ccccc3o2)c1O`, the “activation” value is inactive: -1.67%.

`CC(C)(C)OC(=O)N1CCC(c2nnc(SCc3ccccc3)o2)CC1`: the “activation” value was inactive: 2.47%.

For the molecule `COc1ccc(-c2noc(-c3ccc(N4CCCCC4C)c([N+](=O)[O-])c3)n2)cc1OC` (stereo not drawn), the “activation” value was inactive: -24.6%.

With `COc1ccccc1CNC(=O)c1ccc(N2Cc3cccc(OC)c3Oc3ncccc32)s1`, the “activation” value was inactive: -19.9%.

Turning to `CCCn1c(-c2cccc(Br)c2)nc2ccccc21`, the “activation” value was inactive: -13.7%.

As for `CCCN1C(=O)C(Cc2nc3ccccc3c(=O)n2-c2cccc(C)c2)c2ccccc21` (stereo not drawn), the “activation” value is inactive: -4.28%.

For the molecule `Cn1ncc(C(=O)N2CCN(c3ccc(F)cc3)CC2)c1C1CCN(C(=O)OC(C)(C)C)CC1`, the “activation” value was inactive: 7.75%.

Regarding `CCn1c(-c2ccc(S(=O)(=O)N3CCOCC3)cc2)csc1=Nc1ccc(C)c(Cl)c1`, the “activation” value was inactive: -24%.

For `O=C(CSc1nnc2[nH]c(=O)cc(-c3ccccc3)n12)Nc1ccc(F)cc1F`, the “activation” value is inactive: -18.8%.

`Cc1ccc(C2=CC(c3c(F)cccc3Cl)n3ncnc3N2)cc1C` (stereo not drawn): the “activation” value is inactive: -10.1%.

On to `CC(=O)Nc1cc(-c2nc3ccccc3s2)ccc1C`, for which the “activation” value was inactive: -4.13%.

For the molecule `Cc1cc(C)cc(NC(=O)C2CCCN2S(=O)(=O)c2cccc3nsnc23)c1` (stereo not drawn), the “activation” value is inactive: -8.39%.

With `Cc1cccc(-c2noc(-c3ccc(N4CCN(C)CC4)c([N+](=O)[O-])c3)n2)c1`, the “activation” value was inactive: -7.3%.

For the molecule `COc1ccc(CNc2nc3c(c(=O)n(C)c(=O)n3C)n2Cc2ccccc2Cl)cc1`, the “activation” value was inactive: -6.96%.

As for `Cc1ccc(C)c(CN2CCC(CNC(=O)c3cc4ccc5cccnc5c4[nH]3)CC2)c1`, the “activation” value is inactive: -18.6%.

Take `COc1ccc(C)cc1NC(=O)c1ccc2c(c1)CCN2S(=O)(=O)c1ccc(Cl)cc1`: the “activation” value is inactive: -10.2%.

With `Cc1ccc(C(=O)n2nc(C)c(S(=O)(=O)N3CCCCCC3)c2C)cc1`, the “activation” value is inactive: 4.19%.

Consider `CCOC(=O)c1ccc(CN(Cc2ccccc2C)S(=O)(=O)c2ccc(C(C)(C)C)cc2)cc1`, for which the “activation” value is inactive: -18.1%.

`COc1cccc(C2C(C(=O)Nc3ccccc3)=C(C)Nc3nc(-c4ccccc4)nn32)c1OC` (stereo not drawn): the “activation” value is inactive: -0.6%.

For the molecule `CN(C(=O)CCS(=O)(=O)c1cc2c(cc1Cl)NC(=O)CO2)C1CCCCC1`, the “activation” value was inactive: -3.07%.

In the case of `COc1cc(OC)c(OC)cc1CNc1sc2c(c1C(=O)Nc1ccccc1OC)CCC2`, the “activation” value is inactive: -18.9%.

`O=C(Nc1ccc2nc(SCC(=O)N3CCc4ccccc43)sc2c1)c1cccc(Cl)c1`: the “activation” value was inactive: -0.318%.

Regarding `Cc1ccc(CCNC(=O)CCS(=O)(=O)c2cc3c(cc2C)NC(=O)CO3)cc1`, the “activation” value was inactive: -24.7%.

`Cc1nncn1-c1ccc(C(=O)Nc2cc(F)ccc2F)cc1`: the “activation” value was inactive: -21.4%.

Take `CCN(CC)c1ccc(NC(=O)c2sc3nc4c(cc3c2N)CN(C)CC4)cc1`: the “activation” value was inactive: -21.9%.
